Data published in the supplement of paper PMC4967469.

Tests used:
Test in all cases: Viability of human cancer cell lines after 72 h of drug (GDSC screen)
AZD6482 = compound: Cc1cc([C@@H](C)Nc2ccccc2C(=O)O)c2nc(N3CCOCC3)cc(=O)n2c1 [AZD6482]
Procedure: (§1)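 Human cancer cell lines in 384-well plates, medium with 10% serum, drug for 72 h over a 256-fold dose range (nine 2-fold or five 4-fold steps up to the top dose). Adherent lines were fixed and stained with the nucleic acid dye Syto60, suspension lines read with resazurin; signal relative to control wells, capped at 0 and 100%. One two-parameter sigmoid per drug and line, fitted in a mixed model over all curves with the slope shared within a line.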

BMN-673 = compound: Cn1ncnc1[C@H]1c2n[nH]c(=O)c3cc(F)cc(c23)N[C@@H]1c1ccc(F)cc1 [BMN-673]; details: top dose 10 µM; top dose inferred
Procedure: as §1

MLN4924 = compound: NS(=O)(=O)OC[C@@H]1C[C@@H](n2ccc3c(N[C@H]4CCc5ccccc54)ncnc32)C[C@@H]1O [MLN4924]; details: top dose 1 µM; top dose inferred
Procedure: as §1

[1] = top dose 5.12 µM, screen: GDSC drug entry 156
[2] = top dose 5 µM, screen: GDSC drug entry 1066, top dose inferred

Cell Line	AUC (AZD6482; [1])	IC50 (AZD6482; [1]) [µM]	AUC (BMN-673)	IC50 (BMN-673) [µM]	AUC (MLN4924)	IC50 (MLN4924) [µM]	AUC (AZD6482; [2])	IC50 (AZD6482; [2]) [µM]
MC-IXC (neuroblastoma, adherent)	0.963	> 5.12	0.024	< 0.0391	0.812	0.37		
MCF7 (breast, adherent)	0.984	> 5.12	0.736	3.04	0.722	0.274	0.803	2.58
MDA-MB-157 (breast, adherent)	0.938	> 5.12	0.899	> 10	0.822	0.607	0.985	> 5
MDA-MB-361 (breast, adherent)	0.83	3.17	0.987	> 10	0.849	0.746	0.856	3.97
MDA-MB-453 (breast, adherent)	0.863	> 5.12	0.916	> 10	0.923	> 1	0.673	1
ME-1 (acute myeloid leukaemia, suspension)	0.958	> 5.12	0.987	> 10	0.988	> 1	0.97	> 5
ME-180 (cervix, adherent)	0.959	> 5.12	0.863	9.29	0.679	0.203	0.945	> 5
MEG-01 (chronic myeloid leukaemia, suspension)	0.973	> 5.12	0.965	> 10	0.868	0.823	0.988	> 5
MEL-HO (melanoma, adherent)			0.868	9.33	0.686	0.209	0.834	3.31
MEL-JUSO (melanoma, adherent)	0.857	4.95	0.932	> 10	0.875	> 1	0.892	> 5
MFH-ino (soft tissue, adherent)	0.895	> 5.12	0.673	2.08	0.754	0.392	0.927	> 5
MHH-CALL-2 (B-cell leukaemia, suspension)			0.997	> 10	0.991	> 1	0.987	> 5
MHH-PREB-1 (B-cell leukaemia, suspension)	0.9	> 5.12	0.903	> 10	0.847	0.623	0.817	2.43
MKN1 (stomach, adherent)	0.962	> 5.12	0.965	> 10	0.91	> 1	0.977	> 5
MKN45 (stomach, adherent)	0.982	> 5.12	0.919	> 10	0.841	0.978	0.979	> 5
ML-1 (thyroid, adherent)	0.972	> 5.12	0.861	> 10	0.937	> 1	0.975	> 5

By IC50 is meant the dose at which the fit gives 50% viability; fits outside the tested doses are given as limits. The AUC spans the tested range (256-fold, ending at the top dose) of the same fit; values near 1 show little effect. Any top dose called inferred is not printed in the source and was worked back from the curve model. For some assays here: Drugs with an entry number were screened twice under separate entries, and the two screens often disagree.
